Read counts are not given, so values of variants with three or more changes are uncertain.

The labels stand for the following.
B1: LINE1-full (parent)
chain: UACGUAGGUGGUUUUCCCCUGAUAGUGCUAAGGGGGCCUGGAAGUUUGGACUGGGCAGAGCUCAACACAGCGUGGCAAAGUGGCUGUGGCUAGACUGCCUCUCUGGAUUCCUCGUCACUCAGCAGGGCAUCUCUGAGAGAAAUGCC

In this data set the parent is B1. Briefly: self-cleavage, relative activity (ratio to wild type); higher = more cleavage; in vitro, sequencing; the parent is a self-cleaving ribozyme.
A69U A79G U112A A138G: the self-cleavage turned out to be 0.06. Then A79G U109A U119C, with 1.36; and G74A A107G U134C A142G, with 1.56. U73A A124G U130C A140G A141G: the self-cleavage amounted to 0.68. With A78G A129G U143C, the self-cleavage was 1.91. Regarding A69U A79U G126A G139U, the self-cleavage stood at 0.1. For A69U A79U U100C, the self-cleavage was 0.19. Take A79G U85C G139A: the self-cleavage came to 0.27. Then G75C A79G U85A, with 0.06; and A77U U81C C95U, with 0.24; and U73C U102C U104A A140G, with 1.84. A79G U112C U132C: the self-cleavage turned out to be 0.56.

Take G72U U87A A129G U143C: the self-cleavage is 0.11. Regarding A77G A136U A141U, the self-cleavage is 1.98. For U73A C120U C123U the value was 1.48; for C71U A77U A94U, 0.16. Take A77G U109C A140U: the self-cleavage was determined as 1.31. For the variant A69U A136U A138G, the self-cleavage came to 0.1. For A79G A107G A117G the value was 0; for U73A U91A U96A A107U A117G, 0.08.

Consider G72A A78G U104C U112C U132C, for which the self-cleavage was determined as 1.56. As to U73A U134C A138G, the self-cleavage was 1.44. For A79G A94U U100A A140G the value was 0.16.

Regarding A69U U108A U115C, the self-cleavage is 0.07. As for A69G U87A A141G U143C, the self-cleavage is 0.02. As for C71G C101A A124G, the self-cleavage worked out at 0.82. For U73A C76U U112C A141G the value was 2.57; for A77G G89A A107U A136G, 0.09. As to A79G U85C U104A A136G, the self-cleavage amounted to 0. For C71G G80A U134G the value was 0.24. Then A77C C123U U132C A140G, with 1.04; and U73C G83A A136G, with 2.14; and C76A U109C U134C, with 1.92.

With U73A U96C A121G A136G, the self-cleavage turned out to be 0. In the case of G72A U85C U91A A136G, the self-cleavage is 0.21. For the variant A77G U87A A136G, the self-cleavage came out at 0.

A69U U119C A121U: the self-cleavage turned out to be 0. For the variant U73C A79G U132A, the self-cleavage worked out at 1.34. As for A77U U85C A117G A142G, the self-cleavage came to 0.15. In the case of G75U G89A A138U, the self-cleavage was found to be 0.01. As for A79G U85C U102C A140U, the self-cleavage stood at 0.

U73C U81A U108C G127U U132C A140G: the self-cleavage came out at 1.31.

As for A77C G127A A129G, the self-cleavage amounted to 1.13. Then A69G C84G U108C A124U A140G, with 0; and A79G G114U U115C, with 1.11. Take A69G U81A U102C: the self-cleavage was 0.74. For U73C C99A A140G the value was 0.84; for U73C A79U U96A, 0.07.

In the case of A69U U102G U104G, the self-cleavage came out at 0. As for A69U A129G A136G, the self-cleavage was determined as 0.09. For C71A A78U A117G, the self-cleavage came to 0.2. For the variant U73A U81C U96C, the self-cleavage is 0.06. U73A A78G U119C A121U: the self-cleavage was 0.27. Then C71U U100C U108C A136G, with 1.57; and U73G U104C U108A, with 1.31; and A79G A138G A140U, with 0.84. Turning to U73A A79G A142G, the self-cleavage worked out at 0.87. Regarding U73A U85C G88U U119C, the self-cleavage came out at 0.04.

Consider A78G U85A C103A, for which the self-cleavage worked out at 0.05. U73C A77U A121U: the self-cleavage amounted to 1.73.

As to U73C A79G A142G, the self-cleavage came out at 1.35.

Consider U73A U108C U132A, for which the self-cleavage is 1.95.

On to A77G U130C A142G, for which the self-cleavage came to 2.18. With A79G U119C U143C, the self-cleavage came to 2.45.

As for G74A A107G A117G A136G, the self-cleavage was found to be 1.04. For A69G U100C U134C A136U G137A the value was 0. U73A U81A A138G: the self-cleavage was determined as 1.87. For A77U A94U A140G, the self-cleavage came to 0.19. Then A77G U100C A107U, with 2.76; and U73A U100C A121G, with 2.67; and A79U C131U A138G, with 2.26. Turning to A77G G80A A107G A124G, the self-cleavage came to 2.25. A69G U73A A121G: the self-cleavage worked out at 0.19. Then U73C A78U A107G, with 2.04; and G72A U73C A78G U87A A142G U143C, with 0.1; and U73C U96C C103U A141G, with 0.19.

Regarding A79G U85A U109C A136G, the self-cleavage turned out to be 0. For A69U U73A A78G the value was 0.05; for A79C U81A A117U, 2.53. Take A69G U85A A92G: the self-cleavage was 0. Turning to G72A U87A U104A, the self-cleavage amounted to 0.08. Then U73C G89A U132C, with 0.05; and A69U A77G U112C, with 0.04. Consider A79G U102C A124G, for which the self-cleavage is 1.15. Turning to G72U A107G A140G, the self-cleavage came to 0.3.

On to U73C U85A A124G, for which the self-cleavage was 0. As to A79G G88A A124G A142G, the self-cleavage was 0.06. With C71U U102C A107U, the self-cleavage is 1.17. Then G74A U115C A117G, with 1.97; and A77U A94G A129G, with 0.37. Then U73A A77G C101U A141C, with 2.85; and U73A A94G A140G, with 0.24; and U73C U96A A121G, with 0.14. Then U73A U81A A129G U134A, with 1.77. On to U73C U112C A129U, for which the self-cleavage amounted to 1.84. For A69G A92U U134A A142G, the self-cleavage stood at 0.14. For U73G A107U U132A the value was 2.11. Take C76U A94G U112G: the self-cleavage stood at 0. For the variant A79G U130A A138G, the self-cleavage was 0.69.

G74A U102C U132C: the self-cleavage was found to be 1.2. Consider U73A A79G U85G, for which the self-cleavage is 0.72. As to U73C U85C U100C, the self-cleavage is 0.

For the variant C71U A77U A141G, the self-cleavage was 0.93. As to U73G A79G U85A, the self-cleavage is 0.2. In the case of U73A G135A A142G, the self-cleavage was determined as 1.79.

Regarding A77U A78G A141G, the self-cleavage came to 1.17.

Take U73C A94U U104C: the self-cleavage was 0.98. Turning to U73A A78G C99A U100A G125A U130C, the self-cleavage stood at 0.29. Then U73A U108C A138U, with 2.51. Then A78G C99U U130C, with 0.63. For A69G G75U C95A the value was 0.04; for A78G A136U A138G, 1.29. Turning to A77G C101U A136G, the self-cleavage came out at 2.99. Then A78G U102C U130C A138G A141G, with 0; and A77U U109C A117U U119C A129G A138G, with 0. In the case of A69G U81A U91C, the self-cleavage came out at 0.13. Turning to U73C G74U U85A A124G, the self-cleavage worked out at 0.08. In the case of U73C U91C C128A, the self-cleavage amounted to 0.25. Then A69G U81A A142G C146G, with 1.44; and A78G C99A A138U, with 1.07; and G75A A79U U115C A121U A140G, with 1.74. For the variant A77U U81C C146U, the self-cleavage is 1.31. On to G72A U85C A92G G114A, for which the self-cleavage amounted to 0.07. With A79G C98U A140G, the self-cleavage turned out to be 0.46. For G75C G82A U91C, the self-cleavage was 0.11. For the variant A77U U104A U115C, the self-cleavage is 0.75. Regarding G74A A77U U104C U108C, the self-cleavage is 1.64. On to A78G U108C G127A A129G, for which the self-cleavage was determined as 1.17. For A69U A77G C84A A107G A136U A140G, the self-cleavage is 0.15. Consider G75A U91C U134C, for which the self-cleavage was determined as 0.96. Take A69G G83U U132C: the self-cleavage came out at 0.18.

Turning to A79G U81A A129U, the self-cleavage is 1.77. On to A77G U119G A136G, for which the self-cleavage is 0.84. On to U73C U85C U102C A140G A142G, for which the self-cleavage is 1.31. For the variant A69G U104A A140G, the self-cleavage is 0.16. Consider U73A A117G A129G, for which the self-cleavage amounted to 1.38. As for A69U U115C A136G, the self-cleavage came out at 0.04.

Consider A77G U81C C99U, for which the self-cleavage amounted to 1.13. U73A G80A U130C C133A: the self-cleavage stood at 1.87. Take A69U U96A U102C: the self-cleavage amounted to 0.06. Then G75U U104C U112C, with 0; and U73A U100A U134A, with 1.13.

As to A78G C95U U108C, the self-cleavage worked out at 0.46.

In the case of A79C U100C C113G, the self-cleavage was determined as 1.79. Then A78U U85C U119C G144A, with 0.18; and G70A A78G C90U, with 0.02; and A69G U73C U96A, with 0.04. For A69U U96C U143C the value was 0.06. With A69G U87A U91A, the self-cleavage is 0.18.

Regarding U73A U102C U112A A136U, the self-cleavage turned out to be 2.11. For U73A U108C U115G A140G the value was 2.25; for C71U A77G U134C, 1.55; for C76U A77G U130A, 2.98. For A77G U96A G125U, the self-cleavage is 0.06. For A77G G93U A117U A142G the value was 0.02. With U73A U109A A141G A142C, the self-cleavage was 1.02. In the case of A69U A92C A136G, the self-cleavage came out at 0.

For A78C G88A A124U, the self-cleavage was 0.1. Consider A78G C101U U134A, for which the self-cleavage is 1.93. For U73G U81A U130C, the self-cleavage turned out to be 2.59. Regarding A79G A142G G144A, the self-cleavage stood at 1.6. Consider U73A A136U U143C, for which the self-cleavage was 1.86. As for U73A U112A C113U, the self-cleavage was found to be 1.92. As for A69U U102A A124G, the self-cleavage was determined as 0.16.

For A79U G82A A94G A121G, the self-cleavage was determined as 0.61. For the variant U73A C113U A124U A129G, the self-cleavage was determined as 0.77. As for A79G U87C U132C C146U, the self-cleavage was 0.

Values taken from the RNAGym collection of RNA variant scans (doi:10.7554/elife.90254).
